Reference: publication PMC8630059
Results are given in words; binding and its absence hold for the method and conditions named. Binding seen in cells or lysates may run through a third protein. Some results given as binding are weak or reduced against the parent protein; the word gives no strength.

By UniProt entry, the sequences of proteins in these tests, tags left out.
UniProt Q96EB6: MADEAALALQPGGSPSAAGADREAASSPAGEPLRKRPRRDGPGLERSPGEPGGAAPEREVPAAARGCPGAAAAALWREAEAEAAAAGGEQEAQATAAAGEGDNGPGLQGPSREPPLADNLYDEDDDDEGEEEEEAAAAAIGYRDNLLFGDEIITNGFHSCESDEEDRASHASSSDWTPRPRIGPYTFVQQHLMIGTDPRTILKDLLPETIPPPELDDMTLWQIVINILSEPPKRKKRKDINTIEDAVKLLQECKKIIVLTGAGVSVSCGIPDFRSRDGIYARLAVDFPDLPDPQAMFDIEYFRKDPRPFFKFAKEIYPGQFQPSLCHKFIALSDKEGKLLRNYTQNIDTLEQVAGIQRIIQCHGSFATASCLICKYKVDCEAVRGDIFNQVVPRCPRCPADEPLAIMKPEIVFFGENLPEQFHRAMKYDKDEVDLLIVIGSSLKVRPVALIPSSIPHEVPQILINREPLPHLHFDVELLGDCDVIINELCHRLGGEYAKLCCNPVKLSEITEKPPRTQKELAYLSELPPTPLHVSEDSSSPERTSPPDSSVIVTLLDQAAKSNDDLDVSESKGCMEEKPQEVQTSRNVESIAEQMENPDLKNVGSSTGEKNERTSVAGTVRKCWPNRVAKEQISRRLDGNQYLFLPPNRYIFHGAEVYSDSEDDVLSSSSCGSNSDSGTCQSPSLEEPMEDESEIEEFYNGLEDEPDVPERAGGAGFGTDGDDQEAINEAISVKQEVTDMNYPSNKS
UniProt Q13619: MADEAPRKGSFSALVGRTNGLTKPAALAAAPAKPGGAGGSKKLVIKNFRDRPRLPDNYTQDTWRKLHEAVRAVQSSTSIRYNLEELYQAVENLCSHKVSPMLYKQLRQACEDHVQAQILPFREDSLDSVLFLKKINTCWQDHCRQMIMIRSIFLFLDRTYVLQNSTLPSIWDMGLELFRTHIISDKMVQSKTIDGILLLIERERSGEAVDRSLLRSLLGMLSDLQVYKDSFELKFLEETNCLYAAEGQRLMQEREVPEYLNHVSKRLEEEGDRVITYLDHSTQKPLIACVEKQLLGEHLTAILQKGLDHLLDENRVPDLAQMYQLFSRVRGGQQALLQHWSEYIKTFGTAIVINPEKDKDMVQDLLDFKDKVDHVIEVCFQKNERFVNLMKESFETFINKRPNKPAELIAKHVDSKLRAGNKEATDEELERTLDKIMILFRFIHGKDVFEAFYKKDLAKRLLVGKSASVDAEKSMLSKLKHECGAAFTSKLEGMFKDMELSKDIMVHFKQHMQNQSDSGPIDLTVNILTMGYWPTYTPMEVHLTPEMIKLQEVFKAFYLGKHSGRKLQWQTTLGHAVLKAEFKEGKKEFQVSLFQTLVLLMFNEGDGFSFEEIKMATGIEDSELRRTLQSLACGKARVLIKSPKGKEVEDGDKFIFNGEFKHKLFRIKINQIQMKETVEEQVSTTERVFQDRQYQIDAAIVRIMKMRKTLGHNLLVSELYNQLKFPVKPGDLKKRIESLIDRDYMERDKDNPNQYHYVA
UniProt Q13620: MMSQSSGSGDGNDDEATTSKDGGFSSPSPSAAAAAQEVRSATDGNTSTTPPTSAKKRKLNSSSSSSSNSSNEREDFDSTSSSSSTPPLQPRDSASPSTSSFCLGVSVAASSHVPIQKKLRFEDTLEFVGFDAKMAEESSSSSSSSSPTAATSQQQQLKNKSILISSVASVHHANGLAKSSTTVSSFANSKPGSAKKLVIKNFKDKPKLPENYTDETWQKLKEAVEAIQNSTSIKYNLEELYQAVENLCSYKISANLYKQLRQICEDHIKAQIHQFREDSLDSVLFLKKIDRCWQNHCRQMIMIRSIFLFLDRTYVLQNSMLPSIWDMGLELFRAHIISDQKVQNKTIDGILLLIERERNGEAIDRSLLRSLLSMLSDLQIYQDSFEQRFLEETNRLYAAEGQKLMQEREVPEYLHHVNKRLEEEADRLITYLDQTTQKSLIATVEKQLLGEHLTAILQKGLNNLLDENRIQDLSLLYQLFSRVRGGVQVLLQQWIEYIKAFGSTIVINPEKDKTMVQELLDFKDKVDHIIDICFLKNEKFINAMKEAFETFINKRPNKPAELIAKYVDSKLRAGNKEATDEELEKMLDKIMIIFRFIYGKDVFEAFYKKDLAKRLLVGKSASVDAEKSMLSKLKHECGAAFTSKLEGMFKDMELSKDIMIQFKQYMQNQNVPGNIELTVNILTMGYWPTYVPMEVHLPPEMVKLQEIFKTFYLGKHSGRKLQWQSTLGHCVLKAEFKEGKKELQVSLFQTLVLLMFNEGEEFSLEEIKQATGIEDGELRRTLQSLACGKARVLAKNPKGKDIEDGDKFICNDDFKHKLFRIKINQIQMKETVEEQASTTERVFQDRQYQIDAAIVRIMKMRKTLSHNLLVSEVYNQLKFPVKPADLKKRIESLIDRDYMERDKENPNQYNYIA
UniProt Q16531: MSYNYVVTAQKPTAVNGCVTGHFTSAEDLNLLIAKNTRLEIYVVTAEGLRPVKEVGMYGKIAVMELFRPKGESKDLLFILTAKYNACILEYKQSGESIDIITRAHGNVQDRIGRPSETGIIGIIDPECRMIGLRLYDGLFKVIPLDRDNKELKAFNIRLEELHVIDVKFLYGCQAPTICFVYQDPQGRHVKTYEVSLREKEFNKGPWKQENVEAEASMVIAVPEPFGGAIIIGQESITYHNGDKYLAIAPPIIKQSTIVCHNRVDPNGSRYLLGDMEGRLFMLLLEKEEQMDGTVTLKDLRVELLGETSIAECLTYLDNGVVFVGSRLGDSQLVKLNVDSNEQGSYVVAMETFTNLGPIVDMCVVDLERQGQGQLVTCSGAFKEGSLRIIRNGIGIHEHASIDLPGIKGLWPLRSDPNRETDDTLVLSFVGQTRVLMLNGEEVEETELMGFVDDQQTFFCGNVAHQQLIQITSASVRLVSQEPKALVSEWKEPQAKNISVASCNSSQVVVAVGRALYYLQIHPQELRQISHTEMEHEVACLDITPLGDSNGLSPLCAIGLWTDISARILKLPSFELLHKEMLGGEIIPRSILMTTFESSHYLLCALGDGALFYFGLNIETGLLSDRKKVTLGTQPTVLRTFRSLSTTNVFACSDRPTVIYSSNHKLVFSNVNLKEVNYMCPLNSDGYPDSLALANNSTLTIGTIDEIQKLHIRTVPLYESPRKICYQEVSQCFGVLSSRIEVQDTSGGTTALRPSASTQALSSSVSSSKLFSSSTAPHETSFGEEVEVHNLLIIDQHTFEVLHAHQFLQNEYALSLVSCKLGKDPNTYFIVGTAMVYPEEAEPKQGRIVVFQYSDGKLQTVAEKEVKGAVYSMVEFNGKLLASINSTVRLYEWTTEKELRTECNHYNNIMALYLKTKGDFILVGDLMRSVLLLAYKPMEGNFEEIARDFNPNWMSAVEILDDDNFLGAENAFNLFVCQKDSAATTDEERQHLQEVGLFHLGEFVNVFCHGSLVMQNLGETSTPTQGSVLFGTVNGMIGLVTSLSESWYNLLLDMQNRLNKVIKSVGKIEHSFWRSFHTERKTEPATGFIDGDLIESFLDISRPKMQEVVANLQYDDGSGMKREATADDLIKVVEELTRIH
UniProt O75530: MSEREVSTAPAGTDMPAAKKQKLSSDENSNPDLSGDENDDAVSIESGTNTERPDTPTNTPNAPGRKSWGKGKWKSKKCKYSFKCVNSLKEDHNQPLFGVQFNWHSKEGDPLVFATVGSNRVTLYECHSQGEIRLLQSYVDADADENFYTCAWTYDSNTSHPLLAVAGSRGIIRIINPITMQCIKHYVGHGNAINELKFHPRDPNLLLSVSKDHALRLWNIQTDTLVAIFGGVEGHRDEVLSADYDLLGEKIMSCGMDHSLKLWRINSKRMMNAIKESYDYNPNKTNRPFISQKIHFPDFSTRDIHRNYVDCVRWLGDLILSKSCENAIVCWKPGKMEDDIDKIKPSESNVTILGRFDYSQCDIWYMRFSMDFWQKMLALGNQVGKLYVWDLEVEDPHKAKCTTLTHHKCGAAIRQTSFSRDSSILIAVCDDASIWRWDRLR
UniProt Q13547: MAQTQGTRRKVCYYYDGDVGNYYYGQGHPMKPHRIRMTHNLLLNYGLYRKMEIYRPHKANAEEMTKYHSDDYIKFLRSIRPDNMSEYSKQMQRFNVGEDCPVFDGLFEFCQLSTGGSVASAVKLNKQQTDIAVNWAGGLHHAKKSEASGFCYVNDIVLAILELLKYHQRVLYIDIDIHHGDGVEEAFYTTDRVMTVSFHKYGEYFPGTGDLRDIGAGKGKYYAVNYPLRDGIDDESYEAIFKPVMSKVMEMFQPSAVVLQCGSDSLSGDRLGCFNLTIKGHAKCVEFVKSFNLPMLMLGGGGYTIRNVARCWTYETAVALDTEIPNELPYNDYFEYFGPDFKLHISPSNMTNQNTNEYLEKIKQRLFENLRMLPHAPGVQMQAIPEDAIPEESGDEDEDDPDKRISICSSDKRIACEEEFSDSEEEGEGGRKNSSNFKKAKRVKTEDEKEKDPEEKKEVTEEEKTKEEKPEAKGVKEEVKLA
UniProt Q92769: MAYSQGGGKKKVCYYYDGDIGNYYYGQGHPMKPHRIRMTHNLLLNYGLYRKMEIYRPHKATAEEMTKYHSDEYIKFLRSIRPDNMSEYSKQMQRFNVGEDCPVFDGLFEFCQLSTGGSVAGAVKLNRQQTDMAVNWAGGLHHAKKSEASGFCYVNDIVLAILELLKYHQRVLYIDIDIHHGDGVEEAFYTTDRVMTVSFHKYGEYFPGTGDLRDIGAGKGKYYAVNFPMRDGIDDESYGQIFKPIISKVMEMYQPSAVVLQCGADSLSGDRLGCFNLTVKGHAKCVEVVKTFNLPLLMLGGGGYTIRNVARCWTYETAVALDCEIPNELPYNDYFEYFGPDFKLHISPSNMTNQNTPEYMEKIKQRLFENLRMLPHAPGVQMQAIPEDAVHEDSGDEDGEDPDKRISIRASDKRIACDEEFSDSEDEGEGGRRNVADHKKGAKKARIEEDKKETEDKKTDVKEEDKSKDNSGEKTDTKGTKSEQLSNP

B1: SAP30 (protein, UniProt O75446 1-220)
chain: MNGFTPDEMSRGGDAAAAVAAVVAAAAAAASAGNGTGAGTGAEVPGAGAVSAAGPPGAAGPGPGQLCCLREDGERCGRAAGNASFSKRIQKSISQKKVKIELDKSARHLYICDYHKNLIQSVRNRRKRKGSDDDGGDSPVQDIDTPEVDLYQLQVNTLRRYKRHFKLPTRPGLNKAQLVEIVGCHFRSIPVNEKDTLTYFIYSVKNDKNKSDLKVDSGVH

Legend:
[1] = target: SIRT1 (endogenous) (human (endogenous in PANC-1, AsPC-1, BxPC-3, MIA PaCa-2)) (UniProt Q96EB6); assay: co-IP; endogenous proteins; extracts of PANC-1, AsPC-1, BxPC-3 and MIA PaCa-2 cells (50 mM Tris-HCl pH 7.4, 150 mM NaCl, 1 mM EDTA, 0.5% NP-40, 0.25% sodium deoxycholate); IP with anti-SIRT1 and blot for the indicated proteins, or the reverse; 4 °C overnight
[2] = target: FLAG-tagged SIRT1 (human) (UniProt Q96EB6); assay: co-IP; western blot of the fractions purified on anti-FLAG affinity columns from PANC-1 cells stably expressing FLAG-SIRT1
[3] = target: GST-fused SIRT1 (human) (UniProt Q96EB6); assay: pull-down; about 10 μg GST fusion protein from E. coli BL21 mixed with 5-8 μl in vitro-transcribed/translated product in 0.8% BSA in PBS, room temperature 30 min; Glutathione Sepharose 4B, 4 °C 2 h; western blot; only the target purified

binding [1] | binding [2] | binding [3] | Molecule
no binding | no binding |  | CUL4A (endogenous) (from UniProt Q13619 1-759)
binds | binds |  | Cullin 4B (CUL4B) (endogenous) (from UniProt Q13620 1-913)
binds | binds |  | DDB1 (endogenous) (from UniProt Q16531 1-1140)
 | binds |  | EED (from UniProt O75530 1-441)
 | binds |  | HDAC1 (from UniProt Q13547 1-482) (enzyme)
 | binds |  | HDAC2 (from UniProt Q92769 1-488) (enzyme)
 |  | binds | in vitro-transcribed/translated CUL4B (from UniProt Q13620 1-913)
 |  | binds | in vitro-transcribed/translated DDB1 (from UniProt Q16531 1-1140)
 | binds |  | B1
